Experimental data taken from the antibiotic and cytotoxicity screens of Wong et al. (2023).
Some of the results follow.

Experiments:
HSkMC = human skeletal muscle cells; test: cytotoxicity call (relative viability < 0.9); conditions: 10 µM
HepG2 = test: cytotoxicity call (relative viability < 0.9); conditions: 10 µM
S. aureus RN4220 = test: growth inhibition call (relative growth <= 0.2); conditions: 50 µM

SMILES | cytotoxicity call (HSkMC) | cytotoxicity call (HepG2) | growth inhibition call (S. aureus RN4220)
C[C@H](CO)N1C[C@H](C)[C@H](CN(C)Cc2ccc(-c3ccccc3)cc2)Oc2ccc(NC(=O)Nc3ccccc3)cc2CC1=O | inactive | active | inactive
CCCC(=O)Nc1ccc(OCC(O)CNC(C)C)c(C(C)=O)c1.Cl (stereo not given) | inactive | inactive | inactive
CO[C@H]1CN(C)C(=O)c2cc(NC(C)=O)ccc2OC[C@H](C)N(S(=O)(=O)c2cn(C)cn2)C[C@H]1C | inactive | inactive | inactive
O=C1C(=O)C(O)C(=O)C(=O)C1O (stereo not given) | inactive | inactive | inactive
COc1ccc2c3c(n(c2c1)C)[C@@H](CO)N(CC1CC1)C[C@]13CCN(CC1)S(=O)(=O)c1cn(cn1)C | inactive | inactive | inactive
C[C@H](CO)N1C[C@H](C)[C@@H](CN(C)C(=O)Nc2cccc3ccccc23)Oc2c(NC(=O)Nc3ccc(C(F)(F)F)cc3)cccc2C1=O | inactive | inactive | active
COc1ccc(NC(=O)N(C)C[C@@H]2OCCCC[C@H](C)Oc3ccc(NS(=O)(=O)c4cccs4)cc3C(=O)N([C@H](C)CO)C[C@@H]2C)cc1 | inactive | inactive | inactive
COc1cccc(C#Cc2ccc3c(c2)O[C@H](CN(C)C(=O)CN2CCOCC2)[C@H](C)CN([C@H](C)CO)S3(=O)=O)c1 | inactive | inactive | inactive
CC(C)NC(=O)N(C)C[C@@H]1OCCCC[C@H](C)Oc2ccc(NC(=O)Nc3ccc(C(F)(F)F)cc3)cc2C(=O)N([C@@H](C)CO)C[C@H]1C | inactive | inactive | inactive
COCCNC(=O)C[C@@H]1CC[C@@H](NS(=O)(=O)c2ccc(C)cc2)[C@H](CO)O1 | inactive | inactive | inactive
